Whole data set: some 33,000 sequences, median “E-score (-0.5 to 0.5)” near -0.041, cut for the highest 2% near 0.37. This is one part of the list.
target: T1, Ecm22 (UniProt Q05958); assay: PBM E-score (8-mer binding enrichment) (E-score (-0.5 to 0.5)); higher = stronger / more preferred TF binding; most listed sequences are background and not binding sites; conditions: protein concentration: 200 nM; construct: GST-full length
T1 sequence: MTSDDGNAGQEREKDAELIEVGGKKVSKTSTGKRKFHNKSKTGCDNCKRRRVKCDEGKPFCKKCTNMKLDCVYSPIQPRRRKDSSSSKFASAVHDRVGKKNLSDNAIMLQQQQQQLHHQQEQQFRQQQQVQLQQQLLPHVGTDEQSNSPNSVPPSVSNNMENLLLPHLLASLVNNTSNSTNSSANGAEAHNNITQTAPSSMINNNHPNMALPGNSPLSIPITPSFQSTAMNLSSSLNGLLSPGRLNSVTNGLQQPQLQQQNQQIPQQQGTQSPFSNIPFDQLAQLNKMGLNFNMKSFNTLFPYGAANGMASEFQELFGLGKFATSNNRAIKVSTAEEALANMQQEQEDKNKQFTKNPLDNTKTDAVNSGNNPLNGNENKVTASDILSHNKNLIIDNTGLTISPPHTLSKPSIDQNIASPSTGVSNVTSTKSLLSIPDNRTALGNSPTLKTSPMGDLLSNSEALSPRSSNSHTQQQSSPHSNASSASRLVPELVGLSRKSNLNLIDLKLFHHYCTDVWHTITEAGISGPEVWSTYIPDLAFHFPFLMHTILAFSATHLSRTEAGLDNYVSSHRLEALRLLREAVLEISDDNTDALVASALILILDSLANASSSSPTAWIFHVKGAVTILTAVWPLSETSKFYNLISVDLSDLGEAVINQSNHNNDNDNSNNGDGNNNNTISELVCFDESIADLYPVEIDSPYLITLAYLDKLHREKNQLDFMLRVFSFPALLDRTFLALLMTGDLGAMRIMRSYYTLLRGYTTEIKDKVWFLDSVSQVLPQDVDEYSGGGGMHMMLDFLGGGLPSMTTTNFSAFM
How it was run: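 PURExpress in vitro transcription/translation supplied GST-tagged yeast transcription factors, either full-length or DNA-binding domain. Applied at about 100-200 nM to universal all-10-mer Agilent arrays double-stranded by primer extension, the bound protein was detected with fluorescent anti-GST. E-scores, modified Wilcoxon-Mann-Whitney statistics, were given by the Universal PBM Analysis Suite to ungapped eight-base words pooled with their reverse complements after masliner normalisation.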

Sequence | PBM E-score
GAGCTGTA | -0.219
CATGTGCG | -0.145
AAATAAAT | 0.149
AATTCGCT | 0.173
ATGCAGTG | -0.0612
AGCGTGAG | -0.196
ACCTTCCA | -0.0381
AGGGCTTA | -0.14
ACGACCTA | 0.384
AAATACAG | -0.131
GGACTCCC | -0.247
GATATGAC | 0.0489
AATGTGGT | -0.131
CGGACTCA | -0.209
AATAACCC | 0.076
TAACAAGA | -0.224
AGCGCTAA | 0.0597
CTCTATAC | 0.319
ATTAGTGG | -0.172
AAGTTAAG | -0.298
ACCGTTTA | 0.432
CAATCCCC | -0.107
AGACCTAA | -0.13
TAATACGA | 0.437
TCTAGAAA | -0.0993

Sequence | PBM E-score
AGTCTACA | -0.0898
CAACTGTG | -0.1
AGGGGGCG | -0.117
CATTAGGC | -0.213
CTCCAACA | -0.147
CATACGAC | 0.451
ATACTCAA | 0.0434
AGTTCAAC | -0.0854
CATGCCGA | 0.129
CATTAGGA | -0.13
GGTCGTAC | 0.482
GGGTGGAA | -0.284
GAAGACTC | -0.17
TATTAAAA | 0.0848
ACCGCGGT | 0.136
ATATATCC | 0.0949
CCCTTCCG | -0.218
AGGTAGAT | 0.0145
ATATCGGC | 0.0295
CTATCCTC | 0.115
TACCAGTA | 0.0628
GGAAGTAC | -0.0217
GTGCTGAA | 0.0416
GTCCCGAC | 0.0492
ACCGACGA | 0.269

Sequence | PBM E-score
CAAGGTTC | -0.225
CCCAACTC | -0.0551
GACAAGAA | -0.0569
AAAACCTT | -0.235
GACGTCGC | 0.0811
CATGGGCC | -0.209
CTGCAAAA | -0.0893
CGCCAGAG | -0.231
ATTAGAAT | 0.0404
AACGCGAT | 0.207
ACGCATTG | -0.131
ATTACAGC | -0.0246
AAAAGATG | -0.0856
CCGAGATC | 0.113
CAGAACCA | -0.199
GATCGTAA | 0.387
TATATTAA | 0.198
ACTGCGAC | 0.0785
CTAGGTAA | -0.0984
AACTTGTC | -0.0557
CAGTAGCG | 0.0734
TAACTCGA | 0.139
AAACGAGG | 0.476
ACCGCTAG | -0.228
ACACGTGA | -0.00871

Sequence | PBM E-score
AAAGGAGT | -0.131
ACCTGGTG | -0.163
AATCGCGG | -0.0579
GGTCCAAC | -0.0751
GATGTACA | -0.0923
GACTGAAC | 0.0447
CGTCAGGA | -0.0865
CACCTGCC | -0.139
AGATGTAT | -0.0612
ACAGAATC | -0.187
CAACGATG | 0.207
GATGACAC | 0.0272
AACTTTCG | 0.0435
ACGCCCGC | 0.0667
AATGGATA | -0.0169
AGGAAAAG | -0.137
CCCTCTGA | -0.132
GTCTGTCA | -0.0284
GTTCAGCA | 0.0643
GTGGGCCA | -0.156
CATCGTCA | -0.0402
ATCGAGGC | -0.0398
AACAGTAA | 0.0395
AATCTGCG | 0.165
ACTAGAGT | -0.144

Sequence | PBM E-score
AAAAAGTA | 0.0279
CCCTTTAC | 0.0178
ACAGCTCT | -0.256
ACTGTTAA | 0.0622
CTCTAGAG | -0.311
CACCGAGC | 0.0257
GGTATACC | 0.0922
CCATGCAC | -0.255
GGGGACCA | -0.259
AGTGTTCC | -0.0761
ACTTTTCC | -0.123
ATAGAGAG | -0.241
TGTTGCAA | -0.0124
TATGAGCA | -0.147
CTTATGAC | 0.101
GAATTCGA | -0.0811
CGTTATTC | 0.0353
GCTGAGAA | -0.202
AGCATGTA | 0.059
AGCGGTGG | -0.128
CAAGCTCA | -0.221
CGATTATA | 0.204
AAGTCCTC | -0.169
AATCCTGT | -0.0464
CGAATAAC | 0.211

Sequence | PBM E-score
ACCGAGGT | 0.225
GAGCCAGC | -0.127
GTGTTCAA | -0.0789
CCTCACCG | -0.0928
CCCCCGAC | -0.179
AAAGCGGC | 0.0182
CGAAGTTA | 0.128
CTCTCTTA | -0.0125
AGTGCTCA | -0.297
AGACGTGG | -0.227
ACTTTAAA | 0.018
AAAGTGTA | -0.103
TTGAACAA | -0.0174
TCGCTTAA | 0.394
AGACCGTA | 0.235
CAAGGATC | 0.00425
CCCGGCAG | -0.122
ATGCGTGG | -0.0188
ACTAGATC | -0.0944
GACCTCGA | 0.107
ATCCGTGA | 0.0516
ATCTAAGG | -0.207
ACCTAACG | 0.0706
TGATTGAA | 0.0812
CTCGTAAA | 0.475

Sequence | PBM E-score
CATGTTTC | 0.0119
ATTTATCA | -0.00297
AGGCCCGA | 0.041
ACGAAAGA | 0.205
CTCACTTA | -0.0382
ATGACGCG | 0.186
AACTGTCC | -0.0452
CACGTGGA | -0.17
CGCCCTAG | -0.133
CACTTAGA | -0.144
CGTTACAA | 0.0964
GTAACAGA | 0.0792
ATAACGAG | 0.205
GGACTCAA | -0.239
GGAACGCA | 0.23
CAAGCCCC | -0.197
GAGCGGCA | -0.0931
ATATAAAT | 0.129
CAGTGACA | -0.271
ACTAGCTG | 0.113
AACCCAAA | -0.103
CCCGCGAC | 0.0171

Source: the supplement of paper PMC3334620
